Some of the results follow. The energies were worked out here from pooled read counts, against the library average; single values are noisy.
These sequences were tested against T1, Pho4 (S. cerevisiae) (UniProt P07270) (assay: relative binding free energy (BET-seq); higher = weaker binding). Details: reference: library average.
T1 sequence: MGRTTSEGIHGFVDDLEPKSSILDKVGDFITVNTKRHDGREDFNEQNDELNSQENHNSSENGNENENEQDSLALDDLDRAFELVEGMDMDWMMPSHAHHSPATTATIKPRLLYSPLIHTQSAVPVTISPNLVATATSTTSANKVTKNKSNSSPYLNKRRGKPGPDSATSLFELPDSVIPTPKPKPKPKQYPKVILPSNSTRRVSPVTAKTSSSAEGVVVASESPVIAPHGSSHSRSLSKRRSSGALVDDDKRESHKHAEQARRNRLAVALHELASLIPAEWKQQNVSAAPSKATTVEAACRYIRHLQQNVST

Sequence	relative binding free energy
ATGGTCACGTGGTCAG	0.01 kcal/mol
GTAGTCACGTGTGGTC	0.24 kcal/mol
GGGTGCACGTGTCAAG	0 kcal/mol
ATGCTCACGTGTAGGG	0.17 kcal/mol
TTTAACACGTGCGGGT	0.03 kcal/mol
ATTGTCACGTGTAAGG	0.26 kcal/mol
GGGTGCACGTGTTACT	0.13 kcal/mol
TCGTGCACGTGTTCTT	-0.03 kcal/mol
CTTAGCACGTGGTGGC	-0.09 kcal/mol
TGGGGCACGTGGGACC	-0.24 kcal/mol
ACGGACACGTGGTGTG	-0.16 kcal/mol
GTTTCCACGTGTAGAG	0.14 kcal/mol
ATGTTCACGTGTTACG	0.27 kcal/mol
GGGGTCACGTGTTGTC	0.24 kcal/mol
TTCTGCACGTGGCGGT	0.05 kcal/mol
GGAAGCACGTGTGACT	0.09 kcal/mol
GCTTACACGTGGATAG	0.32 kcal/mol
GGTATCACGTGGCATG	0.02 kcal/mol
GGGGTCACGTGCAGCG	0.06 kcal/mol
GAGTTCACGTGTGTAT	0.37 kcal/mol
TTTGACACGTGGCGCG	-0.11 kcal/mol
AGAGTCACGTGCGGTC	0.23 kcal/mol
GTGTGCACGTGTGTAG	-0.01 kcal/mol
AGAAGCACGTGTTTTT	0.03 kcal/mol
TTTGTCACGTGTCTAT	0.05 kcal/mol
CCGTGCACGTGGTGTA	-0.2 kcal/mol

Sequence	relative binding free energy
CCATGCACGTGGTTGG	-0.06 kcal/mol
GTTATCACGTGGTAAA	0.07 kcal/mol
TGCGTCACGTGGTTCG	0 kcal/mol
GGAAACACGTGCTGGT	0.03 kcal/mol
CTAGACACGTGTGTTT	0 kcal/mol
ATTAGCACGTGGGGTC	-0.06 kcal/mol
ATGAACACGTGTCGGT	0.06 kcal/mol
ACTTTCACGTGAGGGT	0.33 kcal/mol
TTGGGCACGTGATCAA	-0.06 kcal/mol
AATTGCACGTGTGTTC	-0.01 kcal/mol
TAGTGCACGTGGCATA	-0.22 kcal/mol
GACTGCACGTGTGGGG	0.15 kcal/mol
TACATCACGTGGGGTT	-0.15 kcal/mol
GTATCCACGTGCGGTT	0.09 kcal/mol
CTGCGCACGTGGGGCG	-0.23 kcal/mol
TAATGCACGTGGTTTC	-0.01 kcal/mol
ATGGACACGTGTGTAG	0.06 kcal/mol
GGTTCCACGTGAGGGA	0.37 kcal/mol
TCTATCACGTGGTTTT	0.27 kcal/mol
TTGTTCACGTGTAGCT	0.26 kcal/mol
GTGGACACGTGGCGTG	0.03 kcal/mol
TAATTCACGTGTTGTA	0.25 kcal/mol
AAGTGCACGTGGGCAT	-0.32 kcal/mol
GGGAGCACGTGGCAGT	-0.16 kcal/mol
TTCAACACGTGGGGTA	-0.12 kcal/mol
TATGTCACGTGAAGTA	0.28 kcal/mol

Sequence	relative binding free energy
AGTTTCACGTGGCTGA	0.18 kcal/mol
AAGTACACGTGTGATG	0.22 kcal/mol
GCATTCACGTGGGGTG	0.03 kcal/mol
GCGATCACGTGTAGTT	0.23 kcal/mol
TGTGGCACGTGTCTTC	0.01 kcal/mol
TGGTCCACGTGATTGT	0.15 kcal/mol
GTTAGCACGTGAGTCT	0.22 kcal/mol
TCGATCACGTGCGGTG	0.01 kcal/mol
ATTGTCACGTGGGATT	0.05 kcal/mol
AGTAGCACGTGGTGAT	-0.15 kcal/mol
TGCTTCACGTGGGTCG	0.12 kcal/mol
CTGGACACGTGTAGGG	0.1 kcal/mol
CAATTCACGTGGTTTT	0.19 kcal/mol
TTTTCCACGTGGGGTA	-0.07 kcal/mol
GAGTTCACGTGTATGA	0.25 kcal/mol
TCGCGCACGTGGTAGT	-0.19 kcal/mol
ATACACACGTGTTGGT	-0.1 kcal/mol
GTATTCACGTGATACG	0.32 kcal/mol
ACTAGCACGTGGGGTT	-0.23 kcal/mol
TTCAGCACGTGATTTG	0.21 kcal/mol
GGGAACACGTGTGGAT	0.1 kcal/mol
AAATGCACGTGAGAGG	0.17 kcal/mol
TTTTTCACGTGACTGT	0.45 kcal/mol
AGTTTCACGTGGGACT	0.19 kcal/mol
TTATTCACGTGATCGA	0.27 kcal/mol
ACGGACACGTGGTGGT	0.09 kcal/mol

Sequence	relative binding free energy
TGGGGCACGTGTTGTG	-0.12 kcal/mol
GTGATCACGTGGGGAA	-0.02 kcal/mol
AGAGGCACGTGGGCTG	-0.22 kcal/mol
AGTGTCACGTGCTTAA	-0.11 kcal/mol
CGGATCACGTGTTCGT	0.21 kcal/mol
AGATTCACGTGATATT	0.34 kcal/mol
TGGGGCACGTGCAGGG	-0.25 kcal/mol
GCTTTCACGTGGATGT	0.28 kcal/mol
ATATTCACGTGTGTGT	0.23 kcal/mol
GCGTACACGTGTGAGG	0.16 kcal/mol
GTTGCCACGTGTGAGA	0.2 kcal/mol
AGTGTCACGTGTGTCT	-0.05 kcal/mol
AGCGGCACGTGTGAAG	0.06 kcal/mol
GGCTGCACGTGTAAGT	0.19 kcal/mol
TGGGGCACGTGTTAAT	-0.09 kcal/mol
AGTTGCACGTGTCTAT	0.1 kcal/mol
ATAGACACGTGGGAAT	-0.05 kcal/mol
TTGTGCACGTGGAAAG	-0.04 kcal/mol
AATTTCACGTGGAATA	0.3 kcal/mol
GTATGCACGTGTAGAA	0 kcal/mol
TGGGCCACGTGCTAGG	-0.16 kcal/mol
TGATGCACGTGTGGGT	0.05 kcal/mol
GTTATCACGTGGTGTG	0.08 kcal/mol
AAAGACACGTGAGCTG	0.47 kcal/mol
TGTTACACGTGTATGG	0.09 kcal/mol
ATAGACACGTGTATTT	-0.07 kcal/mol

Sequence	relative binding free energy
TAGCGCACGTGTTCGT	-0.08 kcal/mol
GGGACCACGTGGGTTT	-0.02 kcal/mol
TGAGCCACGTGCGGTG	-0.03 kcal/mol
CGTAACACGTGTAGGT	0.02 kcal/mol
ATGCCCACGTGGTGGT	-0.23 kcal/mol
TATTACACGTGAGTGG	0.27 kcal/mol
TGTTTCACGTGAGCGG	0.32 kcal/mol
TAATGCACGTGTGGCA	-0.07 kcal/mol
GATGTCACGTGGCGGC	-0.02 kcal/mol
AGTTACACGTGAATTT	0.29 kcal/mol
AGTTTCACGTGAATGT	0.36 kcal/mol
ATTTACACGTGATTAT	0.16 kcal/mol
TATTACACGTGGTAAT	-0.04 kcal/mol
AATATCACGTGGGGTC	-0.1 kcal/mol
ATAAGCACGTGTTCTG	-0.04 kcal/mol
GGTGGCACGTGTATAA	-0.04 kcal/mol
GGTGACACGTGAGATG	0.36 kcal/mol
TGGTGCACGTGTTAAA	-0.06 kcal/mol
CCTGGCACGTGGGGGG	-0.42 kcal/mol
TGGGGCACGTGTTACA	-0.06 kcal/mol
ACGGTCACGTGATTGG	0.34 kcal/mol
GACGTCACGTGGGTCG	0.08 kcal/mol
GGGTGCACGTGTGTCA	0.05 kcal/mol
GGTGGCACGTGGAGAC	0.03 kcal/mol
AGTTCCACGTGTGTTT	0.24 kcal/mol
AGTGTCACGTGGAACG	0.12 kcal/mol

Sequence	relative binding free energy
TGCGGCACGTGATGTC	-0.04 kcal/mol
CGGGGCACGTGCGTGT	-0.2 kcal/mol
GGGCACACGTGGTAGT	0.14 kcal/mol
AGGGGCACGTGTGTCA	-0.18 kcal/mol
TATTTCACGTGATGGT	0.25 kcal/mol
TAGGTCACGTGGCAGG	-0.05 kcal/mol
TTCTGCACGTGGTGAT	-0.1 kcal/mol
GGCGGCACGTGAGGTA	0.28 kcal/mol
GGGTCCACGTGGCGGT	-0.09 kcal/mol
ACAGTCACGTGTGTAT	0.12 kcal/mol
GTAGGCACGTGGTGAC	-0.19 kcal/mol
TTGGGCACGTGAGACT	0.29 kcal/mol
AGTACCACGTGTATGT	-0.11 kcal/mol
TGATGCACGTGATAGA	0.06 kcal/mol
AGACGCACGTGTGTTA	-0.06 kcal/mol
TGTCGCACGTGGTGAG	-0.09 kcal/mol
TGTGTCACGTGGAGGA	0 kcal/mol
AGCTACACGTGTGTGT	-0.05 kcal/mol
AATTTCACGTGAGATG	0.32 kcal/mol
GGGCTCACGTGAGAGG	0.34 kcal/mol
GTTTTCACGTGTACAG	0.35 kcal/mol
GGTGGCACGTGAGGGT	0.19 kcal/mol
TTATACACGTGGTAAA	-0.03 kcal/mol
GTAGACACGTGAGCTG	0.28 kcal/mol
TGAGGCACGTGGGCCA	-0.25 kcal/mol
TTAGTCACGTGGGATG	-0.1 kcal/mol

Sequence	relative binding free energy
CAGGGCACGTGCGGTG	-0.38 kcal/mol
GGGGGCACGTGTGGCT	0.04 kcal/mol
TGGTGCACGTGTCGTA	-0.09 kcal/mol
TATTACACGTGTAAGT	0.22 kcal/mol
GGGGTCACGTGGCTGT	0.04 kcal/mol
GGGGACACGTGTTCAG	0.03 kcal/mol
GGTGGCACGTGTATGC	-0.11 kcal/mol
GTTCACACGTGACGGG	0.22 kcal/mol
TGTGCCACGTGTTATT	-0.14 kcal/mol
GTGGTCACGTGGTATG	0.02 kcal/mol
AGTCACACGTGAAGGG	0.3 kcal/mol
TATGGCACGTGACGGG	-0.1 kcal/mol
AGCATCACGTGTATTT	0.13 kcal/mol
AGGTGCACGTGAAAAG	0.24 kcal/mol
CTGCTCACGTGTGGTA	0.18 kcal/mol
ATGGTCACGTGTTTAA	0.04 kcal/mol
AGTAACACGTGTGGCG	-0.05 kcal/mol
GTTTTCACGTGTGTAC	0.48 kcal/mol
AGGTACACGTGTGTTC	0.03 kcal/mol
AATTCCACGTGAGGGT	0.25 kcal/mol
CAGGTCACGTGTGTTC	0.17 kcal/mol
TAGTACACGTGGGTCA	-0.06 kcal/mol
AAGTCCACGTGTTTAT	0.18 kcal/mol
GGTGACACGTGTAGGG	0.08 kcal/mol
TTAGTCACGTGATCGG	0.1 kcal/mol
ACATGCACGTGTGGGT	-0.05 kcal/mol

Sequence	relative binding free energy
TGTTGCACGTGATATG	0.04 kcal/mol
AAATTCACGTGTGTGC	0.24 kcal/mol
GGGGACACGTGACGGC	0.28 kcal/mol
GTCGCCACGTGGGATG	-0.15 kcal/mol
TTTGACACGTGTATGC	0 kcal/mol
CTTGGCACGTGTGAGG	-0.06 kcal/mol
GTCATCACGTGGTTGT	0.15 kcal/mol
AGGCGCACGTGGGTTG	-0.21 kcal/mol
AGCGTCACGTGTGTCG	0.07 kcal/mol
GGGAGCACGTGAAGAT	0.18 kcal/mol
TTACTCACGTGTAAGG	0.17 kcal/mol
GGCATCACGTGGTCGG	0.19 kcal/mol
CTGAGCACGTGGTGGC	-0.17 kcal/mol
GTTTGCACGTGGTACA	-0.07 kcal/mol
GTCAGCACGTGTATGA	0.16 kcal/mol
AGGGCCACGTGGGCTT	-0.2 kcal/mol
ATAGACACGTGGCTTG	-0.03 kcal/mol
TTTGCCACGTGGCATG	-0.02 kcal/mol
TGGATCACGTGGTAGC	0.13 kcal/mol
TAAGGCACGTGGTGAA	-0.28 kcal/mol
TATTGCACGTGGGACA	-0.15 kcal/mol
GAAGCCACGTGGGGGG	-0.17 kcal/mol
TGCGCCACGTGGGGTG	-0.24 kcal/mol
GTAATCACGTGTTCGG	0.24 kcal/mol
GGGTGCACGTGTACTA	-0.03 kcal/mol
GTGCCCACGTGGGGGC	-0.25 kcal/mol

Sequence	relative binding free energy
TAGGGCACGTGGCTTG	-0.15 kcal/mol
GGCTGCACGTGGCTTG	-0.08 kcal/mol
AAGAACACGTGAGTGT	0.36 kcal/mol
TGAGGCACGTGGGAAT	-0.03 kcal/mol
GAGCACACGTGAGGTG	0.43 kcal/mol
TGTTGCACGTGGGGGA	-0.18 kcal/mol
TAGATCACGTGTGGAA	0.19 kcal/mol
GTGGACACGTGGAAGA	0.19 kcal/mol
GATGGCACGTGTGCAT	-0.04 kcal/mol
TGCTGCACGTGTGTGA	0.07 kcal/mol
TATTGCACGTGGTGCT	-0.14 kcal/mol
TTCCTCACGTGGGGAG	0.18 kcal/mol
ATGGCCACGTGTGGAG	-0.08 kcal/mol
TCACGCACGTGGGGGT	-0.32 kcal/mol
TCAGTCACGTGTTTTA	0.11 kcal/mol
TTTGGCACGTGAGGTC	0.18 kcal/mol
TTTCTCACGTGTGGAG	0.04 kcal/mol
GCTATCACGTGTTGTA	0.39 kcal/mol
TTGCTCACGTGGTTTT	0.08 kcal/mol
AGGCTCACGTGAGGTG	0.31 kcal/mol
AAAGGCACGTGGTGGC	-0.11 kcal/mol
AGCGCCACGTGGGTTT	-0.19 kcal/mol

— the BET-seq Pho4 binding data (Le et al. 2018)
